From article PMC4336329 (PLoS ONE, 2015) come the findings set out here.

Out of some 310,000 compounds screened, about 2,200 (0.71%) showed an effect of 50% or more. Effects have a minus sign here. Some of the results follow.

human ether-à-go-go-related gene (hERG) potassium channel, sequence (Q12809 whole entry, looked up): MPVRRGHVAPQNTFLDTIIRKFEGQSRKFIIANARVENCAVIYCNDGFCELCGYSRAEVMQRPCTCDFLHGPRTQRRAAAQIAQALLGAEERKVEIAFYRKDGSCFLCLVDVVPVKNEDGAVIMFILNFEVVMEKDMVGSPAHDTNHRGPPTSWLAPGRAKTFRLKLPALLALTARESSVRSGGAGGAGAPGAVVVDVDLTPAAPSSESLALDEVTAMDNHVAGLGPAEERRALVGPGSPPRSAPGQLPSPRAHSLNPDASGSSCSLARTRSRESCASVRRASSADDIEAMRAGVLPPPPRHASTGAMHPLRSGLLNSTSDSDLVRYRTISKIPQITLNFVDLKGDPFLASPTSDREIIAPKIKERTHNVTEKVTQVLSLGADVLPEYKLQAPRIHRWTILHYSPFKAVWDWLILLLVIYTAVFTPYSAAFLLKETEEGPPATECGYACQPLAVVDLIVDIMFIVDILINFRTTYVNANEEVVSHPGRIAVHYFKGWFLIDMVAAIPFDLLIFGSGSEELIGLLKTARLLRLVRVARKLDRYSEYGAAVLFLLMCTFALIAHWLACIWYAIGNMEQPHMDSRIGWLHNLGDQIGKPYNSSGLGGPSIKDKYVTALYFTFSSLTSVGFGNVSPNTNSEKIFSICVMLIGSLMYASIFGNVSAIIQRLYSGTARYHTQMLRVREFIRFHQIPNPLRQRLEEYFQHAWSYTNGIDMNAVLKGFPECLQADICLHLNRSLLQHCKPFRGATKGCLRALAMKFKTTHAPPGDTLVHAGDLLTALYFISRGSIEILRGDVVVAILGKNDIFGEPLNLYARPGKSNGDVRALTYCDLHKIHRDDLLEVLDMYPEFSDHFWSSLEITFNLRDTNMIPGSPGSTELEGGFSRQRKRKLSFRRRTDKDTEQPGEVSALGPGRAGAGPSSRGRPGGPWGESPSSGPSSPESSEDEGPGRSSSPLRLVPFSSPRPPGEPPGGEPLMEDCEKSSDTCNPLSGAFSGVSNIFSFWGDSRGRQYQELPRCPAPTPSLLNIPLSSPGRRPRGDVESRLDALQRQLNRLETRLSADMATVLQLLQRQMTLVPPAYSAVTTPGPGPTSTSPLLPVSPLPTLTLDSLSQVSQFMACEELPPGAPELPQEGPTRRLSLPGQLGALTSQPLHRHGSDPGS

The experiment has as its target human ether-à-go-go-related gene (hERG) potassium channel (human, UniProt Q12809). As to the kind of experiment: primary screen, population patch clamp on CHO cells stably expressing hERG.
On to `CCN1CCN(C(=O)COc2ccc(S(=O)(=O)NC(C)C)cc2)CC1`, for which the “hERG current change (%, negative = inhibition) at 1uM” value stood at 11.9%.

Regarding `Cc1ccccc1NC(=O)COC(=O)c1cc(S(=O)(=O)N2CCOCC2)ccc1C`, the “hERG current change (%, negative = inhibition) at 1uM” value was 8.11%. In the case of `C/C(=N\NC(=O)CSc1nc(C)cc(C)n1)c1ccc([N+](=O)[O-])cc1`, the “hERG current change (%, negative = inhibition) at 1uM” value amounted to 6.49%. As for `O=Cc1ccccc1OCCOc1ccc([N+](=O)[O-])cc1`, the “hERG current change (%, negative = inhibition) at 1uM” value is reported as -11.9%. On to `CCN1CCN(C(=O)CCN2C(=O)c3ccccc3S2(=O)=O)CC1.Cl`, for which the “hERG current change (%, negative = inhibition) at 1uM” value turned out to be 10.2%. As to `CCOC(=O)NN=C1CN(S(=O)(=O)c2ccc(C)cc2)C1`, the “hERG current change (%, negative = inhibition) at 1uM” value came to 17.2%. The figure for `COc1ccccc1Nc1ccncc1[N+](=O)[O-]` is 14.6%; for `CNC(=O)c1ccc(NC(=O)c2cc(S(=O)(=O)N(C)C)ccc2N2CCCC2)cc1` it is 9.45%. As for `COc1cc(NC(=S)N2CCN(c3ccccn3)CC2)cc(OC)c1`, the “hERG current change (%, negative = inhibition) at 1uM” value was found to be 17.7%. For the compound `FC(F)(F)c1ccccc1CN1CCC(Cc2ccccc2)CC1`, the “hERG current change (%, negative = inhibition) at 1uM” value is 13.1%.

`CCOC(=O)c1oc2nc(C(C)C)c3c(c2c1N)CCC3`: the “hERG current change (%, negative = inhibition) at 1uM” value is listed as 12.7%. In the case of `COc1ccc(NC(=O)c2cc(F)c(F)cc2Cl)cc1Cl`, the “hERG current change (%, negative = inhibition) at 1uM” value came out at 5.67%.

Turning to `O=C(Nc1ccc2c(c1)CCCN2C(=O)c1cccs1)c1ccccc1`, the “hERG current change (%, negative = inhibition) at 1uM” value is given as 6.36%. For the compound `CCS(=O)(=O)Nc1cccc(C2=NN(S(C)(=O)=O)C(c3cccs3)C2)c1` (stereo not drawn), the “hERG current change (%, negative = inhibition) at 1uM” value was found to be 3.36%. In the case of `CC(=O)c1cccc(CN2CCN(CCC(C)C)C(CCO)C2)c1` (stereo not drawn), the “hERG current change (%, negative = inhibition) at 1uM” value is recorded as 0.17%.

For the compound `CCN(CC)C(=O)CC(c1cc(OC)c(OC)c(OC)c1)c1c(O)cc(OC)cc1OC` (stereo not drawn), the “hERG current change (%, negative = inhibition) at 1uM” value was 8.36%. The figure for `Cc1ccc(NC(=O)CSc2nnc(N)s2)cc1S(=O)(=O)N1CCOCC1` is 17.3%; for `CNC(=S)NNC(=O)c1oc2nc(-c3ccccc3)cc(-c3ccco3)c2c1N` it is 13.4%. In the case of `O=C(O)c1cc(N2C(=O)C3CCCCC3C2=O)ccc1NCc1cccnc1` (stereo not drawn), the “hERG current change (%, negative = inhibition) at 1uM” value came to 24.6%. Take `O=C(c1cn(-c2ccccc2)nc1-c1cccs1)N1CCOCC1`: the “hERG current change (%, negative = inhibition) at 1uM” value is given as 4.92%. In the case of `COc1cc(NC(=O)CNC(=O)Cn2ccc3ccccc3c2=O)cc(OC)c1OC`, the “hERG current change (%, negative = inhibition) at 1uM” value turned out to be 15.1%.

As for `Cc1cc(C)c([N+](=O)[O-])cc1-c1ccc(/C=N/NC(=O)c2nonc2N)o1`, the “hERG current change (%, negative = inhibition) at 1uM” value is reported as -3.28%. With `CCCCNC1=CC(=O)C(=O)c2ccccc21`, the “hERG current change (%, negative = inhibition) at 1uM” value amounted to 6.58%. The figure for `CCc1ccc(NC(=S)N(Cc2cccnc2)Cc2ccco2)cc1` is 4.58%.

As to `CCCCn1c(Cc2ccccc2)nnc1SCC(=O)Nc1cc(C)on1`, the “hERG current change (%, negative = inhibition) at 1uM” value turned out to be 9.89%. For the compound `O=C(Nc1ccc(F)c(F)c1)c1cccnc1`, the “hERG current change (%, negative = inhibition) at 1uM” value worked out at 0.273%. As for `O=C(NCc1cccnc1)c1c(O)c2cccc3c2n(c1=O)CCC3`, the “hERG current change (%, negative = inhibition) at 1uM” value is -9.52%. Take `C=CCOc1ccc(/C=C2\SC(N)=NC2=O)cc1OC`: the “hERG current change (%, negative = inhibition) at 1uM” value was determined as 9.73%.

In the case of `CCOC(=O)c1c(NC(=O)Cn2nc(C(=O)O)c3ccccc3c2=O)sc(CC)c1C`, the “hERG current change (%, negative = inhibition) at 1uM” value is reported as 11.9%.

`CC(C(=O)O)n1nc2ccccc2n1` (stereo not drawn): the “hERG current change (%, negative = inhibition) at 1uM” value is listed as 17.9%. Regarding `CCN(CC(=O)Nc1c(F)cccc1F)C(=O)C1CC1`, the “hERG current change (%, negative = inhibition) at 1uM” value is reported as 2.88%. As for `O=C1CC(N2CCC(c3nc4ccccc4o3)CC2)C(=O)N1c1ccc(F)cc1` (stereo not drawn), the “hERG current change (%, negative = inhibition) at 1uM” value is recorded as 1.75%. As to `CCOC(=O)C1CCCN(C(=O)c2ccccc2[N+](=O)[O-])C1` (stereo not drawn), the “hERG current change (%, negative = inhibition) at 1uM” value is given as 8.22%. The figure for `COc1ccc(N2C(=O)CC(NCc3cccs3)C2=O)cc1` (stereo not drawn) is 7.13%; for `CCN(CC)C(=O)CN(c1cccc(C(F)(F)F)c1)S(C)(=O)=O` it is 7.31%. As for `O=C1CCC(=O)N1c1ccc(S(=O)(=O)Nc2cccc(Br)c2)cc1`, the “hERG current change (%, negative = inhibition) at 1uM” value stood at 14.2%. The figure for `Nn1c(Cc2ccccc2F)n[nH]c1=S` is 20.4%; for `CCOC(=O)/C(C#N)=C1\SS/C(=C(/C#N)C(=O)OCC)S1` it is 9.55%. The figure for `Fc1ccc(CSc2nsc(SCc3ccc(F)cc3)n2)cc1` is 8.76%.

As to `COc1cc2c(cc1OC)CN(C(=O)C1(c3ccccc3)CC1)CC2`, the “hERG current change (%, negative = inhibition) at 1uM” value stood at 7.07%. The figure for `COc1ccc(Cl)cc1N(CC(=O)Nc1ccccc1SC)S(C)(=O)=O` is -7.22%. Regarding `Cc1ccc(/C=N/NC(=O)c2c(-c3ccccc3)noc2C)c(O)c1`, the “hERG current change (%, negative = inhibition) at 1uM” value was found to be 1.87%.

Take `O=C(COC(=O)/C=C/c1cccc(F)c1)NC1CCCC1`: the “hERG current change (%, negative = inhibition) at 1uM” value was determined as 3.56%. As for `CCOc1cc2[nH]c(=S)n(Cc3ccc(C(=O)NCCOC)cc3)c(=O)c2cc1OCC`, the “hERG current change (%, negative = inhibition) at 1uM” value was found to be 7.68%. As to `COc1ccc(C(=O)NC(C)CCc2ccccc2)cc1[N+](=O)[O-]` (stereo not drawn), the “hERG current change (%, negative = inhibition) at 1uM” value was determined as 2.07%.
